SMILES strings stand for the structures. Screen size: about 48,000 compounds; about 1,200 (2.5%) were called active. Inconclusive results (about 2%) are left out.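 Rule for the calls: active = activation of at least 60% and not above a set upper limit (about 1 call in 100 departs from these limits); inconclusive = activation of 40% to 60%, or above that upper limit; inactive = activation under 40%.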 This is one part of the list.

Consider 85 compounds from PubChem BioAssay AID1346428 (National Center for Advancing Translational Sciences (NCATS), 2018).

For the experiment, the target named is Probable G-protein coupled receptor 32 (Homo sapiens) (UniProt O75388). Put plainly: qHTS for Agonists of Human Resolvin D1 Receptor DRV1. Note: 0% is about no effect. Conditions: CHO-K1 GPR32 beta-arrestin PathHunter luminescence, 90 min; at 76.9 µM; hits give high values; zero percent set by DMSO-only wells. The procedure, abridged: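 Cells are plated overnight, treated with compounds in DMSO for 90 minutes at 37 °C, and developed with PathHunter detection reagent for 1 hour before luminescence is read; signal reflects beta-arrestin binding to GPR32 in engineered CHO-K1 cells.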
Chain of UniProt O75388 (O75388 whole entry, looked up): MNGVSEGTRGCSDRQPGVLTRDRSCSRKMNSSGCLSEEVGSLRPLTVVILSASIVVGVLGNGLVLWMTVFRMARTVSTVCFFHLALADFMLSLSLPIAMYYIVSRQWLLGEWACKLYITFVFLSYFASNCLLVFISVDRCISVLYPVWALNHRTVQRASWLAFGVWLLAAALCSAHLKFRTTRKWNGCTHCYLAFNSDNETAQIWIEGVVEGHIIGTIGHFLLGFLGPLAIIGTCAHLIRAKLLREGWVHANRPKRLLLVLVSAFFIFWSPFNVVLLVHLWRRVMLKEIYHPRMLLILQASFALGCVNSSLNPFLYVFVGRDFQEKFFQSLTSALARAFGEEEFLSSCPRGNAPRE
In general terms: Quantitative high-throughput screening tests each substance at several concentrations.
As for `O=C(Cn1cccc1C(=O)c1ccccc1)NCc1ccccc1Cl`, the activation is inactive: -9.35%.

Regarding `O=C(Nc1cccnc1)c1cc(-c2ccc(Cl)cc2)on1`, the activation is inactive: 20.6%.

On to `Cc1c(Cl)cccc1NC(c1ccc(F)cc1)c1nnc(-c2ccccc2)o1` (stereo not given), for which the activation is inactive: -2.55%.

Consider `COc1ccc(C2=C(N3CCN(c4cc(C)ccc4C)CC3)c3ccccc3C2=O)cc1`, for which the activation is inactive: -6.16%.

For the compound `CCc1ccc(-n2c(=O)c3sc4ccccc4c3n(CC(=O)NCc3ccccc3)c2=O)cc1`, the activation was inactive: 14.7%.

As for `COC(=O)c1ccc(NC(=O)C(=O)NCC(c2cccnc2)N2CCc3ccccc32)cc1` (stereo not given), the activation is inactive: -0.448%.

As to `Cc1cccc(C)c1NC(=O)CSc1nc2ccccc2c2nc(CCc3c(C)n[nH]c3C)nn12`, the activation is inactive: -13%.

With `Cc1c(Cl)cccc1NC(=O)Cn1nnc(-c2nc(-c3ccccc3)no2)c1N`, the activation is inactive: -7.91%.

As for `Cc1c(NC(=O)c2sc3ccccc3c2Cl)cccc1-c1nc2ccccc2o1`, the activation was inactive: 6.35%.

For `CCCOc1ccc(C(=O)Nc2ccc3oc(-c4ccc(N(C)C)cc4)nc3c2)cc1`, the activation was inactive: 5.18%.

As to `CCC1=C[C@@H]2CN(C1)Cc1c([nH]c3ccccc13)[C@@](C(=O)OC)(c1cc3c(cc1OC)N(C)[C@H]1[C@@](O)(C(=O)OC)[C@H](OC(C)=O)[C@]4(CC)C=CCN5CC[C@]31[C@@H]54)C2`, the activation is inactive: -8.14%.

In the case of `CCn1cc(C(=O)NCCc2ccc(C)cc2)c(=O)c2cc(S(=O)(=O)N3CCC(C)CC3)ccc21`, the activation is inactive: -19.8%.

With `CCCOc1ccc(OC(=O)c2cn(-c3ccc(OC)cc3)c(=O)c3ccccc23)cc1`, the activation is inactive: -8.95%.

In the case of `COc1cc(NC(=O)c2nc3ccccc3n(C)c2=O)cc(OC)c1OC`, the activation is inactive: 12.8%.

As to `CCOc1ccccc1NC(=O)C1=C(C)Nc2ncnn2C1c1cccs1` (stereo not given), the activation is inactive: 17.8%.

Turning to `Cc1cccc(N2CCN(C(=O)c3ccc4c(Cl)c5c(nc4c3)CCCC5)CC2)c1C`, the activation is inactive: -21.8%.

In the case of `COc1cccc(-c2nn3c(=O)cc(CN4CCN(C(=O)/C=C/c5ccccc5)CC4)nc3s2)c1`, the activation is inactive: 46.4%.

For the compound `COc1ccc(NC(=O)Cn2nc(C(F)(F)F)c3c2CCCC3)cc1OC`, the activation was inactive: 28.5%.

For `CC(=O)c1cccc(NC(=O)c2cc(C)nc3c2c(C)nn3-c2cccc(Cl)c2C)c1`, the activation was inactive: -6.14%.

Take `O=C(OCc1cc(=O)n2nc(C3CC3)sc2n1)c1ccccc1Cl`: the activation is inactive: -46.3%.

As for `COc1ccc(CNC(=O)C2=CC(c3cccc(OC)c3)=NS(=O)(=O)N2C)cc1`, the activation was inactive: -24.5%.

In the case of `Cc1ccc(CCNC(=O)CCS(=O)(=O)c2cc3c(cc2Cl)NC(=O)CO3)cc1`, the activation was inactive: 3.71%.

As to `CC(C)NC(=O)CN1C(=O)c2cccnc2Sc2ccccc21`, the activation was inactive: -14.1%.

As to `Cc1ccc(-c2nc(-c3cc4cccc(OCc5ccccc5F)c4oc3=O)no2)cc1`, the activation is inactive: -1.66%.

As for `COC(=O)c1c(-c2ccc(Cl)cc2)noc1N1CCN(c2ccc(F)cc2)CC1`, the activation is inactive: -14.6%.

On to `CC(C)c1cc(C(=O)NCc2ccccc2)no1`, for which the activation was inactive: -2.86%.

For `CCOc1ccc(CNC(=O)CCS(=O)(=O)c2ccc3c(c2)oc(=O)n3C)cc1`, the activation is inactive: 11.1%.

Take `COc1ccc(NC(=O)c2csnn2)cc1`: the activation was inactive: 3.1%.

Regarding `Cc1ccc(NC(=O)Cn2c(=O)n(Cc3ccc(C(=O)NCc4ccc5c(c4)OCO5)cc3)c(=O)c3ccccc32)cc1`, the activation was inactive: 19.9%.

Turning to `O=S(=O)(Nc1ccc(C(F)(F)F)cc1)c1ccc2c(c1)OCCO2`, the activation was inactive: 13%.

For the compound `COc1ccccc1N1CCN(Cc2nnc(-c3ccccc3C)o2)CC1`, the activation is inactive: -7.15%.

For `COCCCn1c(=O)c2sccc2n2c(CCCC(=O)Nc3cccc(C(F)(F)F)c3)nnc12`, the activation is inactive: -13.2%.

`O=C(c1ccc2c(c1)N(Cc1ccc(Cl)cc1)C(=O)c1ccccc1S2=O)N1CCC(Cc2ccccc2)CC1` (stereo not given): the activation is inactive: -1.17%.

`O=C(NCCCc1nc2ccccc2n1Cc1cccc(Cl)c1)C1CCCCC1`: the activation is inactive: -25.7%.

In the case of `CCOC(=O)c1cccc(NC(=O)c2ccc3nc(CCc4ccccc4)oc3c2)c1`, the activation was inactive: -13.3%.

In the case of `O=C(O)C1=CCNCC1`, the activation is inactive: -2.62%.

For the compound `CCCCOC(=O)c1ccc(NC(=O)c2csnn2)cc1`, the activation was inactive: 11.9%.

`CC1=C(C(=O)Nc2ccccc2)C(c2ccc[nH]2)n2ncnc2N1` (stereo not given): the activation is inactive: -18.2%.

As for `COc1ccc(CNC(=O)c2cccc(NC(=O)N3CCSc4ncccc43)c2)cc1`, the activation is inactive: -0.241%.

As to `Cc1ccc(Cl)cc1N1C(=O)N(Cc2ccc(C#N)cc2)c2ccccc2S1(=O)=O`, the activation is inactive: 27%.

With `COc1ccc(C2=Nc3ccc(C)cc3NC(c3ccc(Cl)cc3)=N2)cc1`, the activation was inactive: -1.87%.

`COc1ccc(Cl)cc1NC(=O)CCCn1c(C)c2cnn(-c3ccccc3)c(=O)c2c1C`: the activation was inactive: -24.7%.

For the compound `COc1ccc(-c2noc(N3CCC(C(=O)Nc4ccc(C)c(F)c4)CC3)n2)cc1OC`, the activation was inactive: -6.58%.

As for `COc1cccc(Cn2c(=O)n(-c3ccc(Br)cc3F)c(=O)c3sc4ccccc4c32)c1`, the activation was inactive: 26.6%.

Take `COc1ccc(NC(=O)CCNS(=O)(=O)c2cccc3nsnc23)cc1OC`: the activation was inactive: 2.57%.

`COc1ccc(N(Cc2ccccc2)C(=O)c2nc(SC)ncc2Cl)cc1`: the activation was inactive: -11.1%.

In the case of `Cc1ccc(NC(=O)CC2Nc3cccc4cccc(c34)NC2=O)cc1` (stereo not given), the activation was inactive: -9.67%.

Take `CCOc1cccc2cc(-c3nc4sc5c(c4c(=O)[nH]3)CCC(C)C5)c(=O)oc12` (stereo not given): the activation is inactive: -12.6%.

As for `CCCCNC(=O)CSc1nc2ccccc2nc1Cc1ccc(Cl)cc1`, the activation was inactive: -4.97%.

`CCCOc1cccc(C(=O)N(Cc2cc(OC)c(OC)c(OC)c2)C2CCS(=O)(=O)C2)c1` (stereo not given): the activation was inactive: -8.67%.

Take `CN=C(N)NCCC[C@H](N)C(=O)O`: the activation is inactive: -3.87%.

As for `Cc1ccc(OCCn2nnc3sc4c(c3c2=O)CCC(C(C)(C)C)C4)cc1` (stereo not given), the activation was inactive: 18.3%.

On to `CC(C)c1ccc(NC(=O)c2cccn2-c2nnc(N3CCCCC3)s2)cc1`, for which the activation was inactive: -24.7%.

In the case of `CCn1c(CN2CCC(C)CC2)nc2cc(NC(=O)COc3ccc([N+](=O)[O-])cc3)ccc21`, the activation is inactive: -3.54%.

With `O=C(NCCc1ccccc1)c1c[nH]c2ccc(S(=O)(=O)Nc3ccccc3F)cc2c1=O`, the activation was inactive: 15.2%.

Consider `COc1cc(C(=O)Nc2ccc(OCc3cc(=O)n4cc(C)sc4n3)cc2)cc(OC)c1OC`, for which the activation is inactive: -3.62%.

With `COc1ccc(NC(=O)Nc2nnc(N(C)C3CCCCC3)s2)c(OC)c1`, the activation was inactive: -1.61%.

On to `O=C(Nc1ccc(O)c(-c2nc3ccccc3o2)c1)c1ccco1`, for which the activation is active: 84.1%.

Turning to `CCOC(=O)c1sc(NC(=O)COc2ccccc2Cl)c(C(=O)OCC)c1C`, the activation is inactive: -2.16%.

On to `CC1CCN(C(=O)c2cc(-c3ccc(Cl)cc3)on2)CC1`, for which the activation was inactive: 12.9%.

Consider `CC1=C(C(=O)OCC2CCCCC2)C(c2c(F)cccc2Cl)CC(=O)N1` (stereo not given), for which the activation is inactive: -1.82%.

Consider `CCCCCCCCCCC(C)(C)C(=O)Nc1c(OC)cc(OC)cc1OC`, for which the activation was inactive: -21.6%.

As for `COCCNC(=O)c1cc(Sc2ccc(F)cc2F)nc2ccccc12`, the activation was inactive: -5.33%.

Regarding `COc1ccc(CCNC(=O)CCc2c(C)nc3nc(C)nn3c2C)cc1OC`, the activation is inactive: -8.54%.

Regarding `COc1ccc(C)cc1NC(=O)CCS(=O)(=O)c1ccc2c(c1)CC(=O)N2C`, the activation was inactive: 6.73%.

As to `CCc1ccc(S(=O)(=O)c2nnn3c2nc(NC2CCCC2)c2sccc23)cc1`, the activation was inactive: -19.3%.

Regarding `COc1cc(OC)c(NC(=O)Nc2ccccc2OCc2cc(=O)n3cc(C)ccc3n2)cc1Cl`, the activation was inactive: -12.9%.

On to `CC(=O)N1c2nc(-c3ccco3)nn2C2(CCCCC2)[C@@H]2CCCC[C@@H]21`, for which the activation was inactive: -4.32%.

Take `COc1ccc(NC(=O)CN(C)S(=O)(=O)c2ccc3[nH]c4c(c3c2)CCCC4)cc1Cl`: the activation was active: 90.6%.

On to `O=C(CSc1ccc2ccccc2n1)Nc1nsc(-c2ccc(Cl)cc2)n1`, for which the activation was inactive: 7.68%.

For `COc1ccc(-n2ccn(Cc3ccc(C)cc3)c(=O)c2=O)cc1OC`, the activation is inactive: -18.4%.

Consider `O=C(c1ccc2c(c1)N(Cc1ccc(F)cc1)C(=O)c1ccccc1S2(=O)=O)N1CCC(Cc2ccccc2)CC1`, for which the activation was inactive: -0.983%.

For the compound `Cc1cccc(-n2c(=O)c3c(c4cc(C)ccc4n3C)n(Cc3ccccc3F)c2=O)c1`, the activation is inactive: 13.4%.

In the case of `COc1ccc(Cn2c(SCc3ccc(C(=O)NCc4ccccc4F)cc3)nc3cccnc32)cc1`, the activation was inactive: 12.3%.

Consider `Cc1cc(F)ccc1NC(=O)c1sc2nc(-c3cccs3)ccc2c1N`, for which the activation was active: 67%.

Regarding `Cc1nn(C)c2c1c(C(F)(F)F)cc(=O)n2CC(=O)NCc1ccccc1Cl`, the activation was inactive: 7.66%.

As for `Cc1ccc(CC(=O)Nc2c(C(=O)N3CCN(c4ccccc4F)CC3)oc3ccccc23)cc1`, the activation was inactive: -28.8%.

Take `CCOc1ccccc1NC(=O)C(C)Sc1nc2c(c(=O)[nH]1)CCCC2` (stereo not given): the activation is inactive: 15.5%.

With `CCc1cccc(CC)c1NC1=NS(=O)(=O)c2ccccc21`, the activation was inactive: -10.2%.

Take `COc1ccc(-c2cc(C(=O)Nc3c(C)nn(Cc4ccc(F)cc4)c3C)no2)cc1OC`: the activation is inactive: 15.4%.

For `Cc1ccc(NCc2nnc3n2CCCCC3)cc1Cl`, the activation is inactive: -7.59%.

For the compound `CCOCCCNC(=O)CCc1nnc2ccc(N3CCN(c4cccc(OC)c4)CC3)nn12`, the activation was inactive: 2.68%.

`CCOC(=O)c1ccccc1NC(=O)CCc1c(C)nc2ncnn2c1C`: the activation was inactive: -1.26%.

Take `CCOC(=O)C1=C(CN2CCC(C(=O)OCC)CC2)NC(=O)NC1c1ccc(Cl)cc1` (stereo not given): the activation is inactive: -11%.

Regarding `Cc1ccc2c(=O)cc(C(=O)Nc3nnc(C)s3)oc2c1`, the activation was inactive: -9.68%.
